The whole screen tested about 410,000 compounds, of which about 6,400 (1.6%) were called active. The inconclusive results got no clear call from the source; some entries with a clear call stand among them for comparison. The call rests on the fitted dose curve; in most records, active means well fitted inhibition curve with a large enough effect; inconclusive means small, poorly fitted or top-dose-only effect; inactive means no such curve, though single readings can be large or run the other way. Potencies of inconclusive entries are left out as doubtful fits.
Target: Glucagon-like peptide 1 receptor (Homo sapiens) (UniProt P43220)
Experiment: qHTS of GLP-1 Receptor Inverse Agonists (Inhibition Mode); further: nearly all actives have a fitted effect of over 55% in size
Conditions: HEK293 GLP-1R CRE-luciferase, luminescence, 24 h, GLP-1R form is constitutively active; series mostly up to 38.3 µM
How it was run: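 Inverse agonism was detected as reduced cAMP-driven luciferase luminescence after 24 h compound treatment. The cells were HEK293 clones expressing constitutively active human GLP-1R with the reporter. Reporter-only and GPR119 cell lines served as counterscreen controls.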
Potency means the concentration at half of the fitted maximal effect; tags describe the fitted curve by direction and shape.

Sequence of UniProt P43220 (P43220 whole entry, looked up): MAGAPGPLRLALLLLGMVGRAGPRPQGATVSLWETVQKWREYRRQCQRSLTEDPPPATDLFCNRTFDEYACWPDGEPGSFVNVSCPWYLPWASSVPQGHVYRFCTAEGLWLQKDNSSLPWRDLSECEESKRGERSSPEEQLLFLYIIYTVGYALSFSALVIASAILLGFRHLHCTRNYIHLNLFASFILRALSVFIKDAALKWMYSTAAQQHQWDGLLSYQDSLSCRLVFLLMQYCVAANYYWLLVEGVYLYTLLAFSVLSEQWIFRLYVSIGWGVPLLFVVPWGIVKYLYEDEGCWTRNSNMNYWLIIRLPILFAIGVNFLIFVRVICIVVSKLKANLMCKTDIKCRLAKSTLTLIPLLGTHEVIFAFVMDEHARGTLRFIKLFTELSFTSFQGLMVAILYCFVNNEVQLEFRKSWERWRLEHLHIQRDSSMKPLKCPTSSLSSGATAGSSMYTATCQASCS

| SMILES | Potency |
| --- | --- |
| COc1ccc(CCNC(=O)CCc2nnc(Cc3ccc4c(c3)OCO4)o2)c(OC)c1 | inactive |
| CCc1ccc(NC(=O)CN2C(=O)CSc3ccc(S(=O)(=O)N(C)C)cc32)cc1 | inconclusive [inhibitor, single point] |
| CCOC(=O)c1cc([N+](=O)[O-])c([N+](=O)[O-])cc1NC(C)=O | inconclusive [inhibitor, single point] |
| CCOC(=O)C1CCN(C(c2ccccn2)c2c(C)[nH]c3ccccc23)CC1 (stereo unspecified) | inconclusive [inhibitor, partial curve, poor fit] |
| CCCn1cc(S(=O)(=O)CC(=O)NC2CCCCC2)c2ccccc21 | inactive |
| Cc1cc(C)nc(Sc2nc(Cl)nc(N(c3ccccc3)c3ccccc3)n2)n1 | inconclusive [inhibitor, partial curve, poor fit] |
| Cc1cc(OC(C)C(=O)N(Cc2ccc(N(C)C)cc2)Cc2ccco2)ccc1Cl (stereo unspecified) | inactive |
| CC1CCCN(CCCNC(=O)c2ccc3c(c2)N(Cc2ccc(Cl)cc2)C(=O)c2ccccc2S3(=O)=O)C1 (stereo unspecified) | inconclusive [inhibitor, single point] |
| CC(=O)c1c(C)[nH]c(C(=O)OCC(=O)Nc2ccc(Cl)c(S(=O)(=O)N(C)C)c2)c1C | inconclusive [inhibitor, partial curve, poor fit] |
| Cc1ccc(OCC(=O)N/N=C/c2cn(Cc3ccccc3)c3ccccc23)cc1 | inconclusive [inhibitor, full curve, poor fit] |
| CSc1cc(-c2ccc(Cl)cc2)c(C(=O)NC(C)C)s1 | inconclusive [inhibitor, partial curve, poor fit] |
| COc1ccccc1-c1noc(-c2ccc(NC3CCCC3)c([N+](=O)[O-])c2)n1 | inactive |
| CCC(C)c1ccc(N(CC(=O)NC(C)(C)C)C(=O)CNC(=O)c2cccs2)cc1 (stereo unspecified) | inconclusive [inhibitor, partial curve, poor fit] |
| COc1ccc(/C=C2\SC(=S)NC2=O)cc1OS(=O)(=O)c1ccc(NC(C)=O)cc1 | inactive |
| CCOC(=O)c1c(N)sn(-c2ccccc2C)c1=S | inconclusive [inhibitor, single point] |
| CC1CC(C)CN(C(=O)Cn2c(=O)n(CCCCC(=O)NCc3ccco3)c(=O)c3ccccc32)C1 (stereo unspecified) | inconclusive [inhibitor, full curve] |
| COC(=O)c1ccccc1NC(=O)Cn1nc(C(F)(F)F)c2c1CCC2 | inconclusive [inhibitor, single point] |
| CCN(Cc1cc2cc(OC)ccc2[nH]c1=O)C(=O)c1ccncc1 | inactive |
| COc1ccc(-c2[nH]ncc2CNC(C)c2ccccc2Cl)cc1F (stereo unspecified) | inconclusive [inhibitor, partial curve, poor fit] |
| O=C(Nc1cccc(S(=O)(=O)N2CCCCCC2)c1)c1cncc(Br)c1 | inconclusive [inhibitor, single point] |
| CCCOc1ccc(F)cc1-c1cc(C(=O)NCc2ccc(F)cc2)[nH]n1 | inconclusive [inhibitor, single point] |

| SMILES | Potency |
| --- | --- |
| CCOC(=O)N1CCN(CC(O)COc2ccc(-c3ccccc3)cc2)CC1 (stereo unspecified) | inconclusive [inhibitor, partial curve, poor fit] |
| O=C(N/N=C/c1cc([N+](=O)[O-])ccc1O)c1c[nH]c2ccccc12 | inconclusive [inhibitor, single point] |
| COC(=O)c1ccc(NC(=O)C23CC4CC(C2)CC(n2cnc(Cl)n2)(C4)C3)cc1 | inconclusive [inhibitor, partial curve] |
| C/C=C/C=N/NC(=O)CN(c1ccc(Br)cc1)S(=O)(=O)c1ccccc1 | inconclusive [inhibitor, partial curve, poor fit] |
| S=C(NCCCc1ccccc1)NC1CCCCC1 | inconclusive [inhibitor, single point] |
| COCCNC(=S)N(C)[C@H]1C[C@H]2c3cc(Oc4ccccc4C)ccc3CCN2C(=O)[C@H]1[C@H](C)O | inconclusive [inhibitor, single point] |
| CN(C)CCCC1(O)c2ccccc2CCc2ccccc21 | inconclusive [inhibitor, partial curve, poor fit] |
| COc1ccc(-n2nnnc2SCC#CCO)cc1 | inconclusive [inhibitor, single point] |
| CC(=O)Nc1ccc(S(=O)(=O)Nc2ccc(-n3cnnn3)cc2)cc1 | inactive |
| CN(CC(=O)NCC1COc2ccccc2O1)S(=O)(=O)c1ccc(Cl)cc1 (stereo unspecified) | inconclusive [inhibitor, single point] |
| CN(C)S(=O)(=O)c1cccc(NC(=O)Cc2ccsc2)c1 | inactive |
| CC1CN(S(=O)(=O)c2cccc(C(=O)OCc3cc(=O)oc4cc(O)ccc34)c2)CC(C)O1 (stereo unspecified) | inactive |
| Cc1ccc2c(c1)C(=O)N1[C@H]3c4cc(Br)ccc4OC[C@@H]3[C@H](c3ccccc3)[C@]1(C)C(=O)N2 | inactive |
| FC(F)Oc1ccc(NC(=S)NCC2COc3ccccc3O2)cc1 (stereo unspecified) | inconclusive [inhibitor, single point] |
| O=C(Nc1ccc(F)cc1)C(c1ccnc2ccccc12)N1CCN(c2cccc(C(F)(F)F)n2)CC1 (stereo unspecified) | inconclusive [inhibitor, partial curve, poor fit] |
| CCCN1CCC(NC(=S)Nc2ccc(C(=O)OCC)cc2)CC1 | inconclusive [inhibitor, single point] |
| Cc1cc(C)c(S(=O)(=O)N2CCC3(CC2)OCCN3S(=O)(=O)c2cccs2)c(C)c1 | inconclusive [inhibitor, partial curve, poor fit] |
| COc1ccc(/C=N/NC(=O)c2cc(-c3cccc(C)c3)nc3ccccc23)cc1O | inconclusive [inhibitor, single point] |
| COc1ccccc1NS(=O)(=O)c1ccc(-c2cc(C)no2)s1 | inconclusive [inhibitor, full curve] |
| CC(C)N(CCCNC(=O)Cn1ncc2c([nH]c3ccccc32)c1=O)Cc1ccccc1 | inconclusive [inhibitor, full curve, poor fit] |
| Clc1ccc(/C=N/Nc2nnc(Cl)c3ccccc23)cc1 | inactive |

| SMILES | Potency |
| --- | --- |
| O=C(NCC1CCCCC1)c1[nH]c(C(F)(F)F)nc1-c1ccccc1 | inconclusive [inhibitor, single point] |
| O=C(CN1CCCC1)Nc1ccc(NC(=O)Nc2ccccc2Cl)cc1 | inconclusive [inhibitor, single point] |
| COc1cccc2c1C(=O)c1c(O)c3c(c(O)c1C2=O)CC(O)(C(C)=NNC(=O)c1ccc(Cl)c(Cl)c1)CC3OC1CC(N)C(O)C(C)O1 (stereo unspecified) | inconclusive [inhibitor, full curve, poor fit] |
| Cc1ccc(C)c(S(=O)(=O)N2CCCCC2CCNC(=O)C(=O)NCc2ccccc2)c1 (stereo unspecified) | inconclusive [inhibitor, partial curve, poor fit] |
| COc1ccc(CNC(=O)C[C@H]2C[C@H](C(=O)N3CCCCC3)[C@@]3(CCc4ccccc4)c4[nH]c5ccc(Cl)cc5c4CCN3C2=O)cc1OC | inconclusive [inhibitor, partial curve, poor fit] |
| CC1Nc2ncnc(N3CCN(c4ccccc4)CC3)c2N(Cc2ccccc2)C1=O (stereo unspecified) | inactive |
| O=C(/C=C/c1c[nH]c2ccccc12)c1ccccc1 | inconclusive [inhibitor, single point] |
| CCN(CC)CCNC(=O)c1ccc(Cl)c(S(=O)(=O)Nc2ccccc2OC)c1 | inconclusive [inhibitor, partial curve, poor fit] |
| COc1ccc(C(C(=O)NCc2ccccc2)n2c(-c3ccccn3)nc3ccccc32)cc1 (stereo unspecified) | inconclusive [inhibitor, single point] |
| COc1ccc(NS(=O)(=O)c2ccc(N3CCCC3=O)cc2)cn1 | inconclusive [inhibitor, single point] |
| CN(C)CCCOc1ccc(Cl)cc1Br | inactive |
| O=C(CN1CCc2ccccc2C1)Nc1ccccc1N1CCCCCC1 | inactive |
| CN(Cc1cc(-c2ccccc2)on1)C(=O)c1cc(COc2c(F)cccc2F)on1 | inconclusive [inhibitor, single point] |
| Cc1ccc(C)c(NC(=O)CN(C)S(=O)(=O)c2ccc(F)cc2)c1 | inconclusive [inhibitor, partial curve, poor fit] |
| COC(=O)[C@@]12C[C@@H](CC(=O)N3CCC(c4ccccc4)CC3)C(=O)N(Cc3ccccc3)C1=CCC(C)(C)C2 | inconclusive [inhibitor, single point] |
| Cc1cc(S(=O)(=O)Nc2ccc(C(=O)NCC(c3ccccc3)N(C)C)cc2)ccc1F (stereo unspecified) | inconclusive [inhibitor, partial curve, poor fit] |
| CCOC(=O)/C=C(\C)Sc1cc(O)c2ccccc2c1O | inconclusive [inhibitor, partial curve, poor fit] |
| CCCCOc1ccc(OCCNC(=O)c2ccco2)cc1 | inconclusive [inhibitor, single point] |
| O=C(c1ccc(CS(=O)Cc2cccc(Cl)c2)o1)N1CCN(c2ccc(F)cc2)CC1 (stereo unspecified) | inconclusive [inhibitor, partial curve, poor fit] |
